The values that follow come from a collection of fitness landscapes (doi:10.1126/science.1257360).

Some of the results follow.

Sequences and labels used below:
B1: PhoQ; a variant is named by its letters at X, in order, P23837 (parent)
chain: MKKLLRLFFPLSLRVRFLLATAAVVLVLSLAYGMVALIGYSVSFDKTTFRLLRGESNLFYTLAKWENNKLHVELPENIDKQSPTMTLIYDENGQLLWAQRDVPWLMKMIQPDWLKSNGFHEIEADVNDTSLLLSGDHSIQQQLQEVREDDDDAEMTHSVAVNVYPATSRMPKLTIVVVDTIPVELKSSYMVWSWFIYVLSANLLLVIPLLWVAAWWSLRPIEALAKEVRELEEHNRELLNPATTRELTSLVRNLNRLLKSERERYDKYRTTLTDLTHSLKTPLXXLQXXLRSLRSEKMSVSDAEPVMLEQISRISQQIGYYLHRASMRGGTLLSRELHPVAPLLDNLTSALNKVYQRKGVNISLDISPEISFVGEQNDFVEVMGNVLDNACKYCLEFVEISARQTDEHLYIVVEDDGPGIPLSKREVIFDRGQRVDTLRPGQGVGLAVAREITEQYEGKIVAGESMLGGARMEVIFGRQHSAPKDE

Variants of B1 are the subject of this experiment. In words: enrichment ratio after two sorts for PhoP signalling (ratio (wild type AVST 3.29)); higher = more functional. The conditions noted are these: with PhoP (E. coli).
On to ISPF, for which the enrichment ratio is at most 0.25.
On to DNCG, for which the enrichment ratio is at most 0.25.
Consider YIIP, for which the enrichment ratio was at most 0.25.
The value for FCVF was at most 0.25.
Then PIII, with at most 0.25.
Then RGCI, with at most 0.25; and VIEW, with at most 0.25; and FPWQ, with at most 0.25.
Take FMVS: the enrichment ratio is at most 0.25.
On to VDLL, for which the enrichment ratio was at most 0.25.
As for CFSI, the enrichment ratio was at most 0.25.
Then GVLS, with 2.28; and ESSW, with at most 0.25.
The value for LENT was at most 0.25; that for MSKW was at most 0.25; that for SKED was at most 0.25.
The value for KCDD was at most 0.25; that for YAKC was at most 0.25.
On to QMIR, for which the enrichment ratio was at most 0.25.
Then RVHE, with at most 0.25; and ENIR, with at most 0.25; and YDDY, with at most 0.25.
Then LSRI, with at most 0.25; and MTTF, with 11; and TQYQ, with 27.1.
Then RMMR, with at most 0.25.
DCYY: the enrichment ratio is at most 0.25.
Regarding NDQI, the enrichment ratio is 1.1.
As for STEL, the enrichment ratio was at most 0.25.
The value for SMKW was at most 0.25; that for MVHI was at most 0.25.
The value for GKST was at most 0.25; that for GLFT was at most 0.25; that for FCWA was at most 0.25.
Turning to ITLW, the enrichment ratio was at most 0.25.
Then WNGI, with at most 0.25; and IYYH, with at most 0.25; and WDFQ, with at most 0.25.
The value for IFWR was at most 0.25; that for RYQK was at most 0.25; that for YWMT was at most 0.25.
The value for WQLY was at most 0.25.
Regarding LKVK, the enrichment ratio is at most 0.25.
Then TKRW, with at most 0.25; and LYRY, with at most 0.25; and KPQY, with at most 0.25.
Then WQWC, with at most 0.25; and YTWY, with at most 0.25.
Then EARQ, with at most 0.25; and FILM, with 9.92.
Turning to FNNI, the enrichment ratio is at most 0.25.
Then KEME, with at most 0.25.
Regarding KKDV, the enrichment ratio was at most 0.25.
Then QDPL, with at most 0.25; and YCIW, with at most 0.25; and PVPQ, with at most 0.25.
Consider PYNL, for which the enrichment ratio is at most 0.25.
Then MLMY, with at most 0.25.
The value for GISA was 13.
For the variant RRYD, the enrichment ratio is at most 0.25.
The value for WPAS was at most 0.25.
The value for RESY was at most 0.25; that for YQHC was at most 0.25; that for NCWS was at most 0.25.
The value for MFTC was at most 0.25; that for ERWF was at most 0.25; that for VDRK was at most 0.25.
For CFFF, the enrichment ratio is at most 0.25.
The value for YPVE was at most 0.25.
Then SFWA, with at most 0.25; and ISTE, with at most 0.25; and RHHC, with at most 0.25.
Then IVEF, with at most 0.25; and MGTG, with at most 0.25; and TEIM, with 8.17.
Take PGCL: the enrichment ratio is at most 0.25.
The value for NATD was at most 0.25; that for QDVF was at most 0.25; that for YQGS was at most 0.25.
Then PWSH, with at most 0.25; and WPSY, with at most 0.25; and ASCD, with at most 0.25.
Then DFFT, with at most 0.25.
For WHFM, the enrichment ratio was at most 0.25.
The value for YFFI was at most 0.25; that for EDMT was at most 0.25; that for KNHA was at most 0.25.
Then HFDQ, with at most 0.25; and QAHM, with 22.3; and MCRD, with at most 0.25.
As for HAVP, the enrichment ratio is at most 0.25.
The value for FFAH was at most 0.25; that for DMSG was at most 0.25.
Regarding AWGI, the enrichment ratio is at most 0.25.
As for GSGF, the enrichment ratio was at most 0.25.
Then GPRI, with at most 0.25; and FTNI, with at most 0.25.
Then QVVI, with at most 0.25; and AFWT, with at most 0.25; and TVWK, with at most 0.25.
The value for ASQM was 2.47.
In the case of KIIH, the enrichment ratio is at most 0.25.
Then WSYH, with at most 0.25; and EVYG, with at most 0.25.
Then RFYV, with at most 0.25.
Then ASWL, with 5.05; and WESI, with at most 0.25.
In the case of GELY, the enrichment ratio was determined as 9.1.
The value for PQTN was at most 0.25; that for AAGE was at most 0.25.
Then QTRA, with at most 0.25; and DMMI, with at most 0.25.
In the case of NVHR, the enrichment ratio was at most 0.25.
The value for PEFQ was at most 0.25.
In the case of LTVH, the enrichment ratio is at most 0.25.
The value for AMWA was at most 0.25; that for TECT was 5.22.
Then VQIE, with at most 0.25; and FWFW, with at most 0.25; and KQNM, with at most 0.25.
Then YNNP, with at most 0.25.
Turning to YFKP, the enrichment ratio is at most 0.25.
Then LNKS, with at most 0.25; and SNGW, with 1.05.
Then QDHG, with at most 0.25; and LGDP, with at most 0.25.
Then YFHT, with at most 0.25; and RDTV, with at most 0.25; and GEGY, with at most 0.25.
EIMF: the enrichment ratio is at most 0.25.
PERY: the enrichment ratio was at most 0.25.
The value for WPQR was at most 0.25; that for YQND was at most 0.25.
As to PWLA, the enrichment ratio was at most 0.25.
Then HPFT, with at most 0.25; and KAYW, with at most 0.25; and LKQT, with at most 0.25.
The value for PCHG was at most 0.25; that for QDLW was at most 0.25.
The value for KHSS was at most 0.25; that for KYLP was at most 0.25; that for GGLK was at most 0.25.
As for IYDY, the enrichment ratio was at most 0.25.
The value for YLTY was at most 0.25.
Then FYVD, with at most 0.25; and INTI, with at most 0.25.
The value for QVNR was at most 0.25; that for HQVS was at most 0.25.
Consider NWRS, for which the enrichment ratio came out at 1.15.
The value for EISI was 1.12; that for NWSE was at most 0.25.
Consider FLQA, for which the enrichment ratio is at most 0.25.
Turning to PDCL, the enrichment ratio is at most 0.25.
